These are yes or no findings as the source states them, for the method shown. In cells and extracts the contact can be indirect. Some entries that bind do so weakly or less than the wild type. For some assays here: Sequences can lack the tags named with a protein.

From paper PMC10865817 come the findings set out here.

The target of one test is T1, Halo-V5-YTHDF1 (human) (UniProt Q9BYJ9).
T1 sequence: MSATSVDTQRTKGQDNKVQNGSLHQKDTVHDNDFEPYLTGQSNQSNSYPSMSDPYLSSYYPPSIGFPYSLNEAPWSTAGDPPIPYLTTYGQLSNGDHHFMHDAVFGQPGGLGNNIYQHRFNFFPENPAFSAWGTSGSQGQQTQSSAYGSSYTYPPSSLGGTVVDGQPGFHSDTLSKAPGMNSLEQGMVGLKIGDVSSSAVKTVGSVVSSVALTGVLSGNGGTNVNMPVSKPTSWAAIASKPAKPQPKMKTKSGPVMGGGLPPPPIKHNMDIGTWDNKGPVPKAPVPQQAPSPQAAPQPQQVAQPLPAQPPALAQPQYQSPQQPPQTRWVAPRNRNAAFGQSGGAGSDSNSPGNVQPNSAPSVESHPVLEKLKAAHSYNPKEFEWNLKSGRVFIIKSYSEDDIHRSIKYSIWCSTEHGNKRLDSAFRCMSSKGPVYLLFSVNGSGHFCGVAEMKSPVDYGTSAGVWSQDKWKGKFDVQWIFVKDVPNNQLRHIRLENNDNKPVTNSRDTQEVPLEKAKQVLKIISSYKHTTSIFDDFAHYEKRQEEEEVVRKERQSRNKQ
The test can be described thus: co-IP; HEK293T cells co-transfected; V5-tagged YTHDF protein immunoprecipitated (anti-V5 magnetic beads in Fig. 1B, antibodies against V5 tag in Fig. 8C; beads of Fig. 2B not stated), PIAS1 detected by Western blot; with or without SUMO2 co-transfection in Fig. 1B. In general terms: In western blotting, separated proteins are transferred to a membrane and probed.

The target in test [1] is T2, Halo-V5-YTHDF2 (full length, 1-579) (human) (UniProt Q9Y5A9).
T2 sequence: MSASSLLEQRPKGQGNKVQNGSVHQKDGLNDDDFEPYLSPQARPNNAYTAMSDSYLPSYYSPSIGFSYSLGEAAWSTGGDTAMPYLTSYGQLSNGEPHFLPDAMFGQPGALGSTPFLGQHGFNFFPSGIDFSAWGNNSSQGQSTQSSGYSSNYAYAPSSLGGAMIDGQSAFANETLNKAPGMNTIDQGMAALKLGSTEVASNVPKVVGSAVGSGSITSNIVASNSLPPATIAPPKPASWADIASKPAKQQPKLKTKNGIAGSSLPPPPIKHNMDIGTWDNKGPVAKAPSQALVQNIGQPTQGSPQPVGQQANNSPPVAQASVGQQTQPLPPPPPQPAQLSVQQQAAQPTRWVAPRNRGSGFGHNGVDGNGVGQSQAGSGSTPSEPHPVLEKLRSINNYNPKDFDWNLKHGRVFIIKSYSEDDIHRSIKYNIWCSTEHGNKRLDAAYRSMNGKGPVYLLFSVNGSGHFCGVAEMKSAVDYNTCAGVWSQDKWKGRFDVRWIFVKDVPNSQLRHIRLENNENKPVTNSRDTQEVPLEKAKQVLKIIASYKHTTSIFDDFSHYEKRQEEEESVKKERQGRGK
The description is as above.

The target of a further test is T3, Halo-V5-YTHDF3 (human) (UniProt Q7Z739).
T3 sequence: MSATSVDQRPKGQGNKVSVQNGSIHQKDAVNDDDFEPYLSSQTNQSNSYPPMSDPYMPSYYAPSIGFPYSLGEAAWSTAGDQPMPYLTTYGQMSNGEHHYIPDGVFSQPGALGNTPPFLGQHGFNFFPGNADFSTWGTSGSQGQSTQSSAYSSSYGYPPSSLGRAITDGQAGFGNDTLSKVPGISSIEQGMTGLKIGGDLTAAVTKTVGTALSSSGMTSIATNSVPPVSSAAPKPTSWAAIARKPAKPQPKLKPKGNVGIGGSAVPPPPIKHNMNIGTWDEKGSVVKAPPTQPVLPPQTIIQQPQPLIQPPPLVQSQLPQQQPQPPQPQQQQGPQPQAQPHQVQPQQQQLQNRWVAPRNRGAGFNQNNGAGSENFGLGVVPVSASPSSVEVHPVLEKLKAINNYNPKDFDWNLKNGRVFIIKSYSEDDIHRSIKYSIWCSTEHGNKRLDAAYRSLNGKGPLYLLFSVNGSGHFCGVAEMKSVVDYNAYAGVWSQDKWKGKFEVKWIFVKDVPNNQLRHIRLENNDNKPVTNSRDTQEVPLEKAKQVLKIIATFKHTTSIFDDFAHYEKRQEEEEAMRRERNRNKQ
The description is as above.

The target of test [2] is T4, YTHDF2 (endogenous, Akata (EBV+) cells) (human (endogenous in Akata)) (UniProt Q9Y5A9).
T4 sequence: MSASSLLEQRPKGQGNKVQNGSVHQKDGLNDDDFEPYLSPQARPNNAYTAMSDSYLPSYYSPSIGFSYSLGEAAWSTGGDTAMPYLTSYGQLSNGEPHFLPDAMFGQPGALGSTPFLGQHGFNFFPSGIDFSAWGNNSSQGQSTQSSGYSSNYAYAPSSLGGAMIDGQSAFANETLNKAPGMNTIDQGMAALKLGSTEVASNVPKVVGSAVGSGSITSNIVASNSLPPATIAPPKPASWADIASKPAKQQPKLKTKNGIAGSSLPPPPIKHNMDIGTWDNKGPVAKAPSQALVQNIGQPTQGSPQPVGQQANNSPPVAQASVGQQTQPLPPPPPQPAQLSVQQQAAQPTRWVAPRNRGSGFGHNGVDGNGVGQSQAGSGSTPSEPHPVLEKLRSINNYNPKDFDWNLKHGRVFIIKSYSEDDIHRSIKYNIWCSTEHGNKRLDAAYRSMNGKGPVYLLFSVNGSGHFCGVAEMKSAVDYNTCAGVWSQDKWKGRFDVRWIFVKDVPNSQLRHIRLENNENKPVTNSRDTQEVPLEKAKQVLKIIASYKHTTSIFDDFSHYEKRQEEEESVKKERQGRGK
The test can be described thus: proximity ligation; Akata (EBV+) cells fixed with cold methanol, permeabilised with 0.5% Triton X-100; Duolink in situ PLA with mouse anti-YTHDF2 and rabbit anti-PIAS1 antibodies; PBS instead of antibodies as control.

The target of the next test is T5, HA-YTHDF2 (human) (UniProt Q9Y5A9).
T5 sequence: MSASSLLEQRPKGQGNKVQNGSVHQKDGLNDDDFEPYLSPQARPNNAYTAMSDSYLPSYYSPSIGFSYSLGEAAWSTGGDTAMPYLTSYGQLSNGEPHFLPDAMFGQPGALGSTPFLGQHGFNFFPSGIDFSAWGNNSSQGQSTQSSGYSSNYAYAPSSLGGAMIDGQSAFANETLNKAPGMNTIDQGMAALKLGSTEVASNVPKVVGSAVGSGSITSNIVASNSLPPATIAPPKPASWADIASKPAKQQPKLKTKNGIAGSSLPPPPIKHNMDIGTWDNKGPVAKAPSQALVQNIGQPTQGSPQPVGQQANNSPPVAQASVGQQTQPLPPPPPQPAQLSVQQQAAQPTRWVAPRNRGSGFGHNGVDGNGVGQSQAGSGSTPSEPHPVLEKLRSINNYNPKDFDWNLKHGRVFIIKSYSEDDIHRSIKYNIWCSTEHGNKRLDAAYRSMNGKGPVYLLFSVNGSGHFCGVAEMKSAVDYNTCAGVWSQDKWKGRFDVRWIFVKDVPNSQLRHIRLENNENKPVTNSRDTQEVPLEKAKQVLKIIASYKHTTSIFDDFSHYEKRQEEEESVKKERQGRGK
Briefly: co-IP; HEK293T cells co-transfected with HA-YTHDF2 and truncated V5-PIAS1 or Halo-V5-PIAS1; YTHDF2 immunoprecipitated with anti-HA antibody-conjugated beads, Western blot.

For test [3], the target named is T6, Halo-V5-YTHDF2 (aa 1-166) (human) (UniProt Q9Y5A9).
T6 sequence: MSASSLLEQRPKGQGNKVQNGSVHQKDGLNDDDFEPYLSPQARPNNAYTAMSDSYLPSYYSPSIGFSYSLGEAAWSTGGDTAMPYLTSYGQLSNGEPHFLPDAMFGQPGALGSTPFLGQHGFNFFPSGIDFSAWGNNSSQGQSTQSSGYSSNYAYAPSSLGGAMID
The test can be described thus: co-IP; HEK293T cells co-transfected; V5-tagged YTHDF protein immunoprecipitated (anti-V5 magnetic beads in Fig. 1B, antibodies against V5 tag in Fig. 8C; beads of Fig. 2B not stated), PIAS1 detected by Western blot; with or without SUMO2 co-transfection in Fig. 1B.

Test [4] concerns the target T7, Halo-V5-YTHDF2 (aa 1-367) (human) (UniProt Q9Y5A9).
T7 sequence: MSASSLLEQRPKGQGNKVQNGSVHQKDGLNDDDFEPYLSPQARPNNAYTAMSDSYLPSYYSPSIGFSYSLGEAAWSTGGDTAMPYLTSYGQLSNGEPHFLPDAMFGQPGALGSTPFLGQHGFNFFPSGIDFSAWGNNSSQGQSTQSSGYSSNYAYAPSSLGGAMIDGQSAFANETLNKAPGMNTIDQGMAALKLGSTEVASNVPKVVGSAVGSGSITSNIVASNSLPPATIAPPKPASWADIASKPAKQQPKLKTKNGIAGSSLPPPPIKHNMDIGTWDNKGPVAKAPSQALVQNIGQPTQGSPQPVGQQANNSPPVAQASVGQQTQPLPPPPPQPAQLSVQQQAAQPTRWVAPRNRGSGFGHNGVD
The test is described as above.

The target in test [5] is T8, Halo-V5-YTHDF2 (aa 167-367) (human) (UniProt Q9Y5A9).
T8 sequence: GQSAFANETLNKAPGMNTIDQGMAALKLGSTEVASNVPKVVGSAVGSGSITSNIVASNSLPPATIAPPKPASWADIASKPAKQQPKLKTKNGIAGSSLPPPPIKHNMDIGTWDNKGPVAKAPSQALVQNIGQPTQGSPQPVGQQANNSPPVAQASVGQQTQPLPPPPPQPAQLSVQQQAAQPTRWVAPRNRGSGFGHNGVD
Described as above.

Test [6] has as its target T9, Halo-V5-YTHDF2 (aa 167-579) (human) (UniProt Q9Y5A9).
T9 sequence: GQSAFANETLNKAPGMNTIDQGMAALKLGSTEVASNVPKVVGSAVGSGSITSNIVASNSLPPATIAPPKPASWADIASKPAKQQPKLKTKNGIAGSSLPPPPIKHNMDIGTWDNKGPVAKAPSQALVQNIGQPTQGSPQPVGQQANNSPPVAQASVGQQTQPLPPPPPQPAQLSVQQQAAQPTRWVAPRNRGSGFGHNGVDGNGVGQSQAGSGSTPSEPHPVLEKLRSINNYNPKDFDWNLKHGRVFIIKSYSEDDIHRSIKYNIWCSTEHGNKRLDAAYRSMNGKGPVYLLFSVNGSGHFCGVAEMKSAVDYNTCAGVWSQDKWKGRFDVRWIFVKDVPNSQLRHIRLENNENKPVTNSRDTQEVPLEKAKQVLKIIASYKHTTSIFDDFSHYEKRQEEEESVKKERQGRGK
Described as above.

Test [7] addresses T10, Halo-V5-YTHDF2 (aa 368-579) (human) (UniProt Q9Y5A9).
T10 sequence: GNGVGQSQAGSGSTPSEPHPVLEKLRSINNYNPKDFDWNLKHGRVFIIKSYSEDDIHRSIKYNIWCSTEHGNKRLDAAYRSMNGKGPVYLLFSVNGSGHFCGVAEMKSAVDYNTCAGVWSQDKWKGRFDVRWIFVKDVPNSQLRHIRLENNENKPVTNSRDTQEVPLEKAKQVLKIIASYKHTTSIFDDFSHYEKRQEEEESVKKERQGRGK
The test is described as above.

On to HA-PIAS1 (from UniProt O75925 1-651), for which the binding entry (in the test with Halo-V5-YTHDF1 (human); in test [1]; in the test with Halo-V5-YTHDF3 (human)) was “binds” in each case.

As to Halo-PIAS1 (from UniProt O75925 1-651), in test [1], the binding result is listed as “binds”.

Turning to “PIAS1 (endogenous, Akata (EBV+) cells) (from UniProt O75925 1-651)”, in test [2], the binding result is reported as “binds”.

Regarding “V5-PIAS1 (aa 1-415) (from UniProt O75925 1-415) (domain or fragment)”, the binding entry with HA-YTHDF2 (human) was “binds”.

Regarding “V5-PIAS1 (aa 1-433) (from UniProt O75925 1-433) (domain or fragment)”, the binding result with HA-YTHDF2 (human) is listed as “binds”.

With “V5-PIAS1 (aa 101-433) (from UniProt O75925 101-433) (domain or fragment)”, the binding result with HA-YTHDF2 (human) is “binds”.

For the molecule “full-length PIAS1 (construct of Fig. 2B, tag not stated) (from UniProt O75925 1-651)”, the binding result is “binds” in test [3]; “binds” in test [4]; “no binding” in test [5]; “binds” in [6]; “binds” in test [7]; “binds” in test [1].

B1: V5-PIAS1 (aa 409-651) (domain or fragment, UniProt O75925 409-651)
chain: EDGTWAPMRSKKEVQEVSASYNGVDGCLSSTLEHQVASHHQSSNKNKKVEVIDLTIDSSSDEEEEEPSAKRTCPSLSPTSPLNNKGILSLPHQASPVSRTPSLPAVDTSYINTSLIQDYRHPFHMTPMPYDLQGLDFFPFLSGDNQHYNTSLLAAAAAAVSDDQDLLHSSRFFPYTSSQMFLDQLSAGGSTSLPTTNGSSSGSNSSLVSSNSLRESHSHTVTNRSSTDTASIFGIIPDIISLD
On to B1, for which the binding result in the test with HA-YTHDF2 (human) is listed as “no binding”.

B2: V5-PIAS1 (aa 1-205) (domain or fragment, UniProt O75925 1-205)
chain: MADSAELKQMVMSLRVSELQVLLGYAGRNKHGRKHELLTKALHLLKAGCSPAVQMKIKELYRRRFPQKIMTPADLSIPNVHSSPMPATLSPSTIPQLTYDGHPASSPLLPVSLLGPKHELELPHLTSALHPVHPDIKLQKLPFYDLLDELIKPTSLASDNSQRFRETCFAFALTPQQVQQISSSMDISGTKCDFTVQVQLRFCLS
In the case of B2, in the test with HA-YTHDF2 (human), the binding entry was “binds”.

B3: Halo-V5-PIAS1 (aa 1-100) (domain or fragment, UniProt O75925 1-100)
chain: MADSAELKQMVMSLRVSELQVLLGYAGRNKHGRKHELLTKALHLLKAGCSPAVQMKIKELYRRRFPQKIMTPADLSIPNVHSSPMPATLSPSTIPQLTYD
For B3, the binding result with HA-YTHDF2 (human) is “no binding”.
